Reference: PubChem BioAssay AID463173 (ICCB-Longwood Screening Facility, Harvard Medical School, 2010)
In all, about 52,000 compounds went through this assay and about 4,300 (8.3%) were called active. Cut-off read from the data, not from the text of the source: active = survival mostly below about 52% (no sharp cut-off); inactive = mostly above about 56%. The list shows a part of the results.

Tested on: DeltatarO mutant
Test: growth inhibition of S. aureus wild type versus tarO mutant, primary screen, teichoic acid synthesis inhibitors, RN4220, OD600 (AID 463173)
Settings: OD600, 18 h, stronger effect = lower value, screened at 18.75 µg/mL (by protocol)

| Structure (SMILES) | survival |
| --- | --- |
| COc1ccc(Cl)cc1NC(=O)c1sc2nc3n(c(=O)c2c1C)CCC3 | inactive: 76% |
| COc1ccc(NC(=O)CSc2nnc(-c3nonc3NC(C)=O)n2-c2ccccc2)cc1 | active: 60% |
| CCCN(C(=O)Cn1cnc2onc(-c3ccc(F)cc3)c2c1=O)c1cccc(Cl)c1 | inactive: 122% |
| CCC(Sc1nc2ccccc2c(=O)n1CCc1ccc(OC)c(OC)c1)C(=O)N(CC)CC (configuration not stated) | inactive: 102% |
| CCOc1ccc(CCNS(=O)(=O)c2cc(Br)cc3c2N(C(C)=O)CC3)cc1OCC | inactive: 103% |
| Cc1cc(C)n(-c2nc3ccccc3nc2Nc2cccc(C)c2C)n1 | active: 21% |
| COc1cc(OC)c(Nc2nc3ccc(C(=O)c4ccccc4)cc3n3c(C)nnc23)cc1Cl | inactive: 94% |
| O=c1nc2n(-c3ccccc3F)c3ccccc3cc-2c(=O)[nH]1 | inactive: 78% |
| O=C(Nc1ccc(OC(F)(F)F)cc1)c1cc2ccccn2n1 | inactive: 74% |
| CCCCn1cc2c(c1-c1ccc(Cl)cc1)c(=O)n(C)c(=O)n2C | inactive: 76% |
| Cc1cc(C)cc(NS(=O)(=O)c2cc3c(cc2C)NC(=O)CO3)c1 | inactive: 89% |
| Cc1ccc(-n2ncc(C(=O)NCc3ccco3)c2C2CCN(C(=O)OC(C)(C)C)CC2)c(C)c1 | active: 25% |
| Cc1ccc(-n2ncc3c(NC4CCCCCC4)ncnc32)cc1Cl | inactive: 66% |
| CCOC(=O)C1=C(C)N=C2SCCC(=O)N2C1c1ccc(OCc2ccccc2)cc1 (configuration not stated) | inactive: 122% |
| O=C(CSc1nnc(-c2cccs2)o1)N1c2ccccc2CCc2ccccc21 | inactive: 70% |
| Cc1nonc1NC(=O)CNC1CCCCC1 | inactive: 79% |
| COc1ccc(S(=O)(=O)NCCc2csc(-c3ccc(F)cc3)n2)cc1F | inactive: 91% |
| CCCCN(CCCNC(=O)c1cc(Nc2ccc(OC)c(OC)c2)nc2ccccc12)Cc1ccccc1 | inactive: 68% |
| CCN(CC)C(=O)CSc1nc(C)cc(=O)[nH]1 | inactive: 94% |

| Structure (SMILES) | survival |
| --- | --- |
| Cc1occc1-c1nnc(SCC(=O)N2CCCC(C)C2)n1CC1CCCO1 (configuration not stated) | inactive: 80% |
| COC(=O)c1c(NC(=O)CCCOc2cccc(C)c2)sc2c1C(C(=O)OC)CC2 (configuration not stated) | active: 0% |
| CCN(CC)C(=O)Cn1c(=O)n(Cc2ccc(C(=O)NCCc3ccc(OC)c(OC)c3)cc2)c(=O)c2ccccc21 | inactive: 104% |
| CCc1ccc(CN(Cc2cn[nH]c2-c2ccc(OC)cc2)C(=O)Nc2cc(Cl)ccc2OC)cc1 | inactive: 58% |
| CC(=O)c1cccc(NC(=O)C2CCN(S(=O)(=O)c3ccc4c(c3)oc(=O)n4C)CC2)c1 | inactive: 99% |
| O=c1[nH]c2cc3c(cc2cc1C(c1nnnn1C1CCCC1)N1CCc2ccccc21)OCCO3 (configuration not stated) | inactive: 64% |
| CCC(SC1=NCCS1)C(=O)Nc1ccccc1OC (configuration not stated) | inactive: 86% |
| CCOC(=O)c1cccc(NC(=O)CCn2c(-c3ccc(F)cc3)cc(C(=O)OCC)c2C)c1 | inactive: 76% |
| O=C(CSCc1ccccc1Cl)N1CCN(c2ccc(Cl)cc2)CC1 | inactive: 92% |
| COc1c(C)cccc1C(=O)Nc1cccc2ccc(C)nc12 | active: -1% |
| CCCS(=O)(=O)N1CC(=O)N(c2ccc(Cl)cc2C)C(C)(C(=O)NC2CCCC2)C1 (configuration not stated) | inactive: 122% |
| O=C1CN=C(Nc2ccccc2Cl)N1Cc1ccccc1 | inactive: 110% |
| O=C(CSc1nc2sc3c(c2c(=O)[nH]1)CCCC3)NCc1cccs1 | inactive: 95% |
| COc1cc2nc(NC(=O)c3ccc(S(=O)(=O)N4CCOCC4)cc3)sc2cc1OC | inactive: 92% |
| CC(=O)N1CCN(c2ccccc2F)CC1 | inactive: 107% |
| Cc1ccc(OC(=O)c2ccc3snnc3c2)cc1 | inactive: 115% |
| COc1ccc(NC(=O)CSC2=Nc3ccccc3C3=NC(CCC(=O)NC4CCCCC4)C(=O)N23)cc1 (configuration not stated) | inactive: 74% |
| CCOc1cc(CNC(=O)c2ccc3c(c2)NC(=O)C2CCCCN32)cc(OCC)c1OCC (configuration not stated) | inactive: 107% |
| Cc1ccc(Cl)cc1N1CCN(C(=O)c2ccc3c(c2)N(Cc2ccc(F)cc2)CCS3)CC1 | inactive: 73% |

| Structure (SMILES) | survival |
| --- | --- |
| Nc1nn(-c2ccccc2)nc1NC=O | inactive: 95% |
| COc1ccc(CN(C(=O)CSc2nnc(-c3ccc(OC)c(OC)c3)o2)c2ccc(F)cc2)cc1 | inactive: 101% |
| Cc1cn2c(=O)cc(COC(=O)c3ccc(NC(=O)COc4ccccc4F)cc3)nc2s1 | inactive: 89% |
| CCOc1ccccc1OCCCn1c(-c2ccc(Cl)cc2)nc2ccccc2c1=O | inactive: 42% |
| Cc1cc(C)cc(-n2c(-c3ccccc3)c(C)n3c4c(=O)n(C)c(=O)n(C)c4nc23)c1 | inactive: 88% |
| CC1CCCCN1S(=O)(=O)c1ccc(S(=O)(=O)NCc2ccc(F)cc2)cc1 (configuration not stated) | inactive: 88% |
| COc1ccc(Cn2ccn(Cc3cccc(OC)c3)c(=O)c2=O)cc1 | active: 46% |
| Cc1cccc(NC(=O)N2CC(=O)Nc3sc4c(c3C2c2ccccc2)CCCC4)c1C (configuration not stated) | inactive: 71% |
| Cc1ccccc1CN1CCC(CNC(=O)c2c(C)oc3ncnc(N4CCCCC4)c23)CC1 | inactive: 82% |
| CCN1C(=O)c2ccccc2S(=O)c2ccc(C(=O)N3CCN(c4cc(Cl)ccc4C)CC3)cc21 (configuration not stated) | inactive: 64% |
| CCC(Sc1nc(-c2ccccc2F)nc2c1Cc1c(CO)cnc(C)c1O2)C(=O)Nc1cc(C)ccc1C (configuration not stated) | inactive: 63% |
| CCOc1ccc(CCNC(=O)C2=C(C)C(=O)OC23CCCCC3)cc1 | inactive: 89% |
| Fc1ccc(-c2noc3ncnc(NCc4ccc(Cl)cc4)c23)cc1 | inactive: 84% |
| O=C(CCn1c(=O)c2cccn2c2cccnc21)NCc1ccc(F)cc1 | inactive: 87% |
| CN(Cc1ccccc1)C(=O)c1ccc2c(c1)N(Cc1ccccc1Cl)C(=O)c1ccccc1S2 | inactive: 78% |
| COc1cc(C(=O)NCC(c2cccs2)S(=O)(=O)c2cccs2)cc(OC)c1OC (configuration not stated) | inactive: 94% |
| Cc1cc(=O)n(CC(=O)N2CCN(c3ccccc3F)CC2)c2c1c(C)nn2C | inactive: 69% |
| CCc1ccccc1NC(=O)c1cnc(N2CCCCC2)c2ccccc12 | inactive: 96% |
| CCOc1ccc(CCNC(=O)Cn2nc(CC)n3c(cc4ccccc43)c2=O)cc1 | inactive: 99% |
